The values below come from article PMC6212790.

This is one part of the list. At the low end of the ranking the order means little.

The target of this assay is T1, GST-Rok-C97-191 (UniProt O34857).
T1 sequence: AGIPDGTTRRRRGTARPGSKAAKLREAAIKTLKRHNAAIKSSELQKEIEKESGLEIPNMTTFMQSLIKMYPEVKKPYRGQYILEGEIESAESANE
In words: protein binding microarray.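 Also: rank score from −0.5 (least bound) to 0.5 (best bound).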 The conditions noted are these: Rok is a gene silencer of Bacillus subtilis; high values mean tight binding; most listed sequences are background and not binding sites; double strand, one strand shown.
In the case of GGCGCAGA, the binding signal was -0.161 E-score.
For the sequence AGATAGAG, the binding signal is 0.128 E-score.
To GGCAGGTA belongs -0.0893 E-score; to CAAGTACA, 0.151 E-score; to ATATCGGC, 0.132 E-score.
To ATTTATAA belongs 0.294 E-score; to CCTACACA, -0.0862 E-score; to CCATAACA, 0.0044 E-score.
In the case of CATACAGA it was 0.074 E-score; in that of CTTGACCA, -0.0401 E-score; in that of CACATTCG, -0.0205 E-score.
On to AAGCGGGC, for which the binding signal was -0.237 E-score.
With CAGGGATC, the binding signal was -0.151 E-score.
For GAAGTTCC, the binding signal amounted to 0.00186 E-score.
In the case of GCGGACAA it was 0.0143 E-score; in that of GTCGCTCA, -0.178 E-score; in that of ACTAACAA, 0.145 E-score.
In the case of ACCGGTAG it was 0.335 E-score; in that of CCCAGGTA, 0.139 E-score; in that of GAAACCCC, -0.257 E-score.
To GTAGTGAC belongs 0.104 E-score; to CATAAAGC, -0.119 E-score; to GGAAGACC, -0.269 E-score.
The sequence GCAGGTCC yielded a binding signal of -0.212 E-score.
In the case of ACGCGCGT it was -0.0522 E-score; in that of TGGTCTAA, 0.0359 E-score; in that of GTTAACTA, 0.376 E-score.
Take CCAACCGG: the binding signal is -0.0823 E-score.
Consider GTCTGTCA, for which the binding signal was -0.198 E-score.
In the case of ACAGGCAA it was -0.103 E-score; in that of ACGCGGAT, 0.0372 E-score.
For the sequence GCAAGAGC, the binding signal came out at 0.025 E-score.
To ACCACGAA belongs -0.121 E-score.
In the case of ATTACTGG it was 0.0256 E-score; in that of ACTGATCG, -0.00184 E-score; in that of CAGTTGAG, 0.154 E-score.
To TCATGGCA belongs -0.195 E-score.
AGTAGGCC had a binding signal of -0.0718 E-score.
As for CCATAGCG, the binding signal came out at 0.0847 E-score.
CTAAGTGC showed a binding signal of -0.0912 E-score.
In the case of GAACTATA it was 0.29 E-score.
To CTTTTCTC belongs -0.0564 E-score; to CAGTCCGA, -0.104 E-score.
Take ACCCGAGT: the binding signal is -0.0212 E-score.
To GCGTGCAC belongs -0.00144 E-score; to CACTTAAC, 0.15 E-score.
In the case of AGTCCTAT it was 0.102 E-score; in that of ACGCTCAA, -0.0503 E-score; in that of CCATTCCC, -0.108 E-score.
To CAGTACGC belongs -0.15 E-score; to GGGCTACA, -0.0485 E-score.
In turn, CGCTTTAA registered a binding signal of -0.0773 E-score.
In the case of GCATAGGC it was -0.0886 E-score; in that of TCTATGAA, 0.163 E-score.
To CCTTAGGC belongs -0.19 E-score.
To CAGAGAAG belongs -0.0435 E-score; to ACGTATAT, 0.373 E-score.
Sequence GTGCACCA registered a binding signal of -0.138 E-score.
To ACAGCTGT belongs 0.0119 E-score; to ACCATTCA, 0.0811 E-score; to CCATTCTA, 0.324 E-score.
Turning to AAATTACA, the binding signal came out at 0.325 E-score.
CCGGGCAC: the binding signal is -0.216 E-score.
To CCAACAAC belongs -0.0721 E-score.
To ATGTGTGC belongs -0.12 E-score; to CAACCAAG, -0.0171 E-score.
In the case of AATGAGGC it was -0.0993 E-score; in that of ATATATAC, 0.367 E-score.
The sequence ATTCGAGG displayed a binding signal of 0.0198 E-score.
AGTTACCA yielded a binding signal of 0.28 E-score.
In the case of CCATGATA it was 0.0924 E-score.
In the case of ACTATGGG it was 0.15 E-score.
In the case of CACGTCAA it was -0.000438 E-score.
In turn, ACCGCCAT registered a binding signal of -0.11 E-score.
ATACCACA: the binding signal was 0.0711 E-score.
In the case of ATTTGTCC it was -0.0598 E-score; in that of ACGGCAAG, 0.0145 E-score.
In the case of TACTACAA it was 0.303 E-score; in that of ATCACCTG, 0.125 E-score; in that of ATCACAGC, 0.216 E-score.
In the case of ACCGCCCA it was -0.204 E-score; in that of ACATCTTC, 0.0581 E-score; in that of ATCAAGCG, -0.186 E-score.
As to ACTGAATC, the binding signal came to 0.000341 E-score.
In the case of GTCATGCA, the binding signal is -0.133 E-score.
Regarding AATAACGC, the binding signal was -0.0378 E-score.
In the case of CTTCGCTA it was 0.0332 E-score.
To CGGCATGC belongs -0.201 E-score; to GTGACTCA, -0.115 E-score; to AAGGACTC, -0.0498 E-score.
To ATTTGTAA belongs 0.203 E-score; to GGTCCATA, -0.0791 E-score; to GCTGTTCA, -0.0471 E-score.
Regarding CGGATTCA, the binding signal came to 0.0279 E-score.
To GACGGTCA belongs 0.0143 E-score; to AATCTCCG, 0.0984 E-score; to GGCCGTTA, -0.0731 E-score.
CGAAAGAG displayed a binding signal of -0.194 E-score.
In the case of ACGCCATG it was -0.135 E-score; in that of ACTTACGA, 0.153 E-score.
For the sequence GAGTCTAA, the binding signal was determined as 0.0843 E-score.
Turning to CTCACCTA, the binding signal came out at 0.0853 E-score.
To CCGAATCG belongs -0.179 E-score; to CAAGCGCC, -0.193 E-score.
To CTTGGGAC belongs -0.184 E-score; to GGTGTATA, 0.266 E-score.
To AAAAATAA belongs 0.244 E-score.
For ATGATCCG, the binding signal is -0.0917 E-score.
In the case of AATGAGAT it was 0.145 E-score; in that of AACGTTCA, 0.0011 E-score; in that of ACAAGTCC, -0.174 E-score.
In the case of AACTCTGG it was -0.0501 E-score; in that of AAGTTTAA, -0.0234 E-score.
In the case of ACTTTCCA it was 0.255 E-score; in that of CACGACAG, -0.0669 E-score.
Regarding TCAGGTCA, the binding signal was -0.0573 E-score.
To GCCCCCAC belongs -0.27 E-score; to GGCCGTAA, 0.00218 E-score; to CCTAAACA, -0.122 E-score.
Take ACTCTGGG: the binding signal was determined as 0.0142 E-score.
To CGACGACA belongs -0.186 E-score; to AAATGTAA, 0.349 E-score.
To CCAGTCGG belongs -0.167 E-score.
To TGTTCAAA belongs 0.0172 E-score.
For CTCCCTAA, the binding signal is -0.274 E-score.
In the case of CGCCTCCC it was -0.248 E-score.
For ATGAAGAC, the binding signal was -0.139 E-score.
To CACTACTA belongs 0.344 E-score.
In the case of GATTGACC it was -0.023 E-score.
With AACATCAT, the binding signal was found to be 0.00751 E-score.
In the case of ATCAACCG it was -0.0451 E-score.
To AGCCAGAC belongs -0.155 E-score; to GCCCCAAA, -0.228 E-score; to CGCCATTA, 0.12 E-score.
Consider GAATTATC, for which the binding signal turned out to be 0.23 E-score.
To CTATACAG belongs 0.0862 E-score; to ACGTTGAA, 0.0897 E-score; to AGATTCGC, -0.128 E-score.
Sequence AATGCTCG came in with a binding signal of 0.0299 E-score.
To CTCACGGA belongs -0.178 E-score; to AGCAAGCG, -0.0284 E-score.
In the case of CAGTGTTA it was 0.0901 E-score.
In the case of AGGTCAAT it was -0.0172 E-score.
In turn, GCCTCTGA showed a binding signal of -0.245 E-score.
In the case of CGAAGCTC it was -0.173 E-score; in that of CTTTAGGC, -0.0933 E-score.
As to AATCTTAT, the binding signal was 0.185 E-score.
To AGCAGAGA belongs -0.135 E-score; to CAACCTTG, -0.0702 E-score.
In the case of ATAGTGAT it was 0.0864 E-score; in that of AATTTCGA, 0.271 E-score.
In the case of ACCGACTG it was -0.0161 E-score; in that of TACTTCGA, 0.232 E-score; in that of AGATCCGA, -0.0616 E-score.
CTATAAGA gave a binding signal of 0.156 E-score.
In the case of ATGTCGAG it was -0.132 E-score; in that of AGTCAAAC, 0.117 E-score; in that of TCTGCCAA, -0.0966 E-score.
In the case of ATTGTAAG it was 0.016 E-score; in that of CAATCACG, -0.245 E-score; in that of AAATCTGC, -0.0413 E-score.
In the case of CAGTAAGC it was -0.0499 E-score.
The sequence CCAATTCG had a binding signal of 0.00764 E-score.
In the case of AGTGAAGA it was 0.164 E-score; in that of GGGAGTGA, -0.147 E-score.
To TTATCCAA belongs 0.108 E-score; to CCCGGTCC, -0.102 E-score.
To CGGTAATC belongs -0.184 E-score; to ACGATGTA, 0.00217 E-score.
For the sequence ACTAAGAA, the binding signal came out at 0.000298 E-score.
To GTAACTTA belongs 0.228 E-score; to GACGGTGC, -0.143 E-score.
In the case of CCTCGGAG it was -0.234 E-score; in that of AGGCGAGA, -0.14 E-score; in that of ATCTATAG, 0.295 E-score.
For the sequence CACTGATC, the binding signal is -0.131 E-score.
In the case of AATCATAT it was 0.166 E-score; in that of AGTGCGAT, -0.0697 E-score; in that of GATGAACA, 0.138 E-score.
In the case of ATTTGCCA it was 0.177 E-score; in that of ATCTAGAT, 0.255 E-score; in that of ATTCCCGC, -0.0834 E-score.
As for AAGGCTTA, the binding signal was -0.207 E-score.
For CGCAGTAG, the binding signal was found to be 0.0362 E-score.
Take CGCGCCCG: the binding signal was -0.183 E-score.
In the case of ATCCTTTA it was -0.0194 E-score.
To GCGGCAGA belongs -0.0665 E-score; to ACGTTTGG, 0.0256 E-score.
The sequence ACCCCTAC registered a binding signal of -0.2 E-score.
To CCCCGTCC belongs -0.175 E-score.
In the case of CACTTGGA it was -0.124 E-score; in that of TAGCAGAA, 0.073 E-score.
In turn, ACTCCTCG came in with a binding signal of -0.154 E-score.
In turn, AATACTAA displayed a binding signal of 0.287 E-score.
To ATCAGTCC belongs -0.0613 E-score.
Turning to AGTGGGTA, the binding signal came to 0.2 E-score.
In the case of ACAGCGCA it was 0.0237 E-score.
The sequence CACGAGCA came in with a binding signal of -0.0421 E-score.
As for GATCTTAC, the binding signal is 0.0962 E-score.
To CCCAGGCC belongs -0.345 E-score; to ACAAAGTA, 0.275 E-score; to CCCTCCCC, -0.482 E-score.
As to GACTCTCA, the binding signal is -0.0851 E-score.
In the case of TCTATAAA it was 0.161 E-score.
The sequence GCAATGCA displayed a binding signal of -0.0527 E-score.
To AGACCTAG belongs 0.0543 E-score; to ACGTTAAA, 0.0842 E-score; to ATGGAGCG, -0.0617 E-score.
In the case of ATAAATGC it was 0.265 E-score.
With GAATAAGA, the binding signal was determined as 0.0835 E-score.
In the case of ACATATAA it was 0.26 E-score.
To CATTTACC belongs 0.0643 E-score; to CCCTTTCA, -0.125 E-score; to AGAGGTAA, 0.149 E-score.
To GTTGGCAA belongs -0.0668 E-score.
In turn, CCACCGTC displayed a binding signal of -0.219 E-score.
In the case of CATCGTCC it was -0.217 E-score.
In the case of AGGGAATG it was -0.182 E-score; in that of TGAGGAAA, -0.0897 E-score.
